Reference: the supplement of paper PMC10502849
This is one part of the list. Most values come without repeats; read them as rough.

Columns and labels:
[1] = tested on: H9 teratoma-derived LAM model cells, TSC2-/-; assay: percent SyTOX+ dead cells; higher = more cytotoxic; settings: 5 µM, treatment time 72 h, culture: 3D hyaluronic acid hydrogel
[2] = tested on: H9 teratoma-derived LAM model cells, WT; assay: percent SyTOX+ dead cells; higher = more cytotoxic; settings: 5 µM, treatment time 72 h, culture: 3D hyaluronic acid hydrogel, genotype: WT
[3] = tested on: H9 teratoma-derived LAM model cells, TSC2-/-; assay: percent of cells invaded past median invasion distance of vehicle control; LAM is lymphangioleiomyomatosis; the cells come from teratomas of the human stem cell line H9; higher = more invasion; extreme values may be limits of the assay; settings: 5 µM, treatment time 72 h, culture: 3D hyaluronic acid hydrogel
[4] = tested on: H9 teratoma-derived LAM model cells, WT; assay: as above; settings: 5 µM, treatment time 72 h, culture: 3D hyaluronic acid hydrogel, genotype: WT
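Wherever percent SyTOX+ dead cells is given: cells seeded atop a hyaluronic acid gel crosslinked via MMP-cleavable peptides, containing vitronectin peptides and methylcellulose, imaged live by high-content microscopy with automated analysis, one technical replicate per compound.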
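Wherever percent of cells invaded past median invasion distance of vehicle control is given: live cells imaged by high content microscopy and scored with in-house automated image analysis, one technical replicate per compound in each genotype and rapamycin condition.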

Row | Compound | percent SyTOX+ dead cells ([1]; rapamycin 0 nM) | percent SyTOX+ dead cells ([1]; rapamycin 20 nM) | percent SyTOX+ dead cells ([2]; rapamycin 0 nM) | percent SyTOX+ dead cells ([2]; rapamycin 20 nM) | percent ([3]; rapamycin 0 nM) | percent ([3]; rapamycin 20 nM) | percent ([4]; rapamycin 0 nM) | percent ([4]; rapamycin 20 nM)
1 | Cc1nnc(C(=O)NC(C)(C)c2nc(C(=O)NCc3ccc(F)cc3)c(O)c(=O)n2C)o1 [Raltegravir, MK-0518, Isentress] | 11.2% | 9.42% | 12.5% | 2.48% | 68.6% | 25.4% | 59.7% | 37.1%
2 | CC[C@H](CO)Nc1nc(NCc2ccccc2)c2ncn(C(C)C)c2n1 [Roscovitine, CYC202, Seliciclib] | 5.19% | 7.27% | 12.4% | 10.6% | 53.7% | 29.1% | 35.2% | 23.2%
3 | COc1ccc(S(=O)(=O)N(C(C)=O)c2ccccc2/C=C/c2cc[n+]([O-])cc2)cc1 | 69.3% | 60.9% | 67.2% | 61.7% | 11.5% | 13.8% | 3.79% | 1.68%
4 | Cc1ccc(NC(=O)c2cccc(C(C)(C)C#N)c2)cc1Nc1ccc2ncn(C)c(=O)c2c1 | 7.69% | 3.65% | 34.7% | 16.3% | 63.4% | 92.4% | 54.9% | 43.7%
5 | Nc1ncnc2c1c(-c1ccc(Oc3ccccc3)cc1)cn2C1CCCC1 | 49.3% | 22.5% | 61.9% | 61.4% | 4.11% | 6.2% | 0% | 0%
6 | CCc1cnn2c(NCc3ccc[n+]([O-])c3)cc(N3CCCC[C@H]3CCO)nc12 | 28.1% | 7.64% | 29.1% | 17.8% | 4.68% | 10.2% | 2.95% | 2.72%
7 | O=C1Nc2ccc(I)cc2/C1=C/c1cc(Br)c(O)c(Br)c1 | 18.4% | 11.4% | 25.7% | 30% | 20.2% | 19.3% | 9.17% | 6.67%
8 | Cc1ccc(NC(=O)CCCCCC(=O)Nc2ccccc2N)cc1 | 7.93% | 6.9% | 8.52% | 8.02% | 50% | 51.3% | 55.7% | 46%
9 | O=C(Nc1cccc2cccnc12)c1ccc(N2C(=O)[C@@H]3[C@H](C2=O)[C@H]2C=C[C@@H]3C2)cc1 | 5.04% | 9.12% | 5.94% | 9.22% | 51% | 43.4% | 65.1% | 70.6%
10 | CCc1cncnc1N1CCN(Cc2nc3ccc(C(F)(F)F)cc3[nH]2)CC1 | 0.45% | 2.68% | 6.03% | 10.5% | 52% | 52.2% | 60.1% | 21.2%
11 | CCOc1cc(N2CCC(O)CC2)ccc1Nc1ncc2c(n1)N(C)c1ccccc1C(=O)N2C | 7.94% | 0.64% | 3.55% | 9.9% | 88.4% | 91.4% | 62.1% | 66.7%
12 | CS(=O)(=O)CCNCc1ccc(-c2ccc3ncnc(Nc4ccc(OCc5cccc(F)c5)c(Cl)c4)c3c2)o1 | 11.6% | 17% | 11.1% | 14.1% | 39.5% | 17.4% | 22.9% | 15.6%
13 | Nc1nc(OCC2CCCCC2)c2[nH]cnc2n1 | 4.05% | 7.75% | 16% | 13.4% | 20.7% | 38.7% | 30.1% | 41.2%
14 | C/C(=N\N=C(N)N)c1ccc(NC(=O)Nc2ccc(/C(C)=N/N=C(N)N)cc2)cc1 | 6.57% | 21.7% | 11.2% | 12.6% | 20.9% | 8.24% | 38.4% | 16.1%
15 | CC(C)(C)c1cnc(CSc2cnc(NC(=O)C3CCNCC3)s2)o1 | 54.8% | 33.6% | 45.9% | 26.6% | 31.1% | 69.5% | 3.82% | 26.1%
16 | NC(=O)c1cccc(N)c1 [3-Aminobenzamide, 3-ABA, INO-1001] | 19.8% | 12.1% | 10.4% | 19.7% | 56% | 25.4% | 44.1% | 45.2%
17 | Cc1cc(Nc2cc(C3CC3)[nH]n2)nc(Nc2ccc(CC#N)cc2)n1 | 44.2% | 32.4% | 74.9% | 45.5% | 0% | 12.2% | 0% | 0.32%
18 | NC(=O)c1ccc(-c2nc(-c3ccc4c(c3)OCCO4)c(-c3ccccn3)[nH]2)cc1 | 14.8% | 6.54% | 34.5% | 18.8% | 33.3% | 29.4% | 5.95% | 16.2%
19 | O=C(O)c1cc(N(Cc2ccccc2O)Cc2cc(O)ccc2O)ccc1O | 12.5% | 11.8% | 6.47% | 6.84% | 32.2% | 18.3% | 31.4% | 19.5%
20 | O=C(Nc1nc2ccccc2n1CCN1CCOCC1)c1cccc([N+](=O)[O-])c1 [IRAK-1/4 Inhibitor I] | 8.53% | 7.33% | 9.4% | 15.6% | 66.7% | 31.5% | 38.7% | 33.5%
21 | NC(=O)c1ccc(-c2nc(-c3ccccn3)c(-c3ccc4c(c3)OCO4)[nH]2)cc1 | 14.9% | 18.8% | 17.6% | 13.9% | 58.5% | 26% | 28% | 29.2%
22 | C=CC(=O)N1CCC[C@@H](n2nc(-c3ccc(Oc4ccccc4)cc3)c3c(N)ncnc32)C1 | 11.1% | 4.26% | 52.5% | 48% | 98% | 18.1% | 7.63% | 0%
23 | Cc1nn(C)c2nc(NNC(=O)Nc3cc(Cl)nc(Cl)c3)cc(C(C)C)c12 | 7.38% | 8.94% | 9.09% | 23.4% | 65.8% | 41.1% | 54.3% | 70.7%
